# Laboratory results reported in the supplement of paper PMC8728848.
# The list shows a part of the results.
# B1: CFEM-SCL (Saccharomyces cerevisiae), O13547 (protein)
# chain: MRATTLLSSVVSLALLSKEVLATPPACLLACVAQVGKSSSTCDSLNQVTCYCEHENSAVKKCLDSICPNNDADAAYSAFKSSCSEQNASLGD
# How the values were obtained:
# Assay in all cases: glycan array binding signal (z-score within array); higher = stronger binding
# Conditions in all cases: glycan notation: IUPAC condensed, linker removed
# Neu5Ac(a2-3)Gal(b1-4)Glc = target: Neu5Ac(a2-3)Gal(b1-4)Glc
# In short: (§1)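 Glycan array data were curated from 3228 arrays in the Consortium for Functional Glycomics database and kept only where the protein sequence was available. Glycan names were converted to IUPAC-condensed notation, and columns mapping to the same glycan were averaged. The binding signal is a within-array Z-score, averaged across arrays of the same protein sequence at different concentrations or buffers and across linkers. Negative Z-scores can be read as non-binding.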
# [1] = target: Neu5Ac(a2-3)Gal(b1-4)GlcNAc
# In short: as §1
# [2] = target: Neu5Ac(a2-3)Gal(b1-4)GlcNAc(b1-2)Man
# In short: as §1
# [3] = target: Neu5Ac(a2-3)Gal(b1-4)GlcNAc(b1-2)Man(a1-3)[GlcNAc(b1-4)][Neu5Ac(a2-3)Gal(b1-4)GlcNAc(b1-2)Man(a1-6)]Man(b1-4)GlcNAc(b1-4)GlcNAc
# In short: as §1
# [4] = target: Neu5Ac(a2-3)Gal(b1-4)GlcNAc(b1-2)Man(a1-3)[Neu5Ac(a2-3)Gal(b1-4)GlcNAc(b1-2)Man(a1-6)]Man(b1-4)GlcNAc(b1-4)GlcNAc
# In short: as §1
# [5] = target: Neu5Ac(a2-3)Gal(b1-4)GlcNAc(b1-2)Man(a1-3)[Neu5Ac(a2-3)Gal(b1-4)GlcNAc(b1-2)Man(a1-6)]Man(b1-4)GlcNAc(b1-4)[Fuc(a1-6)]GlcNAc
# In short: as §1
# [6] = target: Neu5Ac(a2-3)Gal(b1-4)GlcNAc(b1-2)Man(a1-3)[Neu5Ac(a2-6)Gal(b1-4)GlcNAc(b1-2)Man(a1-6)]Man(b1-4)GlcNAc(b1-4)GlcNAc
# In short: as §1
# [7] = target: Neu5Ac(a2-3)Gal(b1-4)GlcNAc(b1-2)[Neu5Ac(a2-3)Gal(b1-4)GlcNAc(b1-4)]Man(a1-3)[GlcNAc(b1-4)][Neu5Ac(a2-3)Gal(b1-4)GlcNAc(b1-2)[Neu5Ac(a2-3)Gal(b1-4)GlcNAc(b1-6)]Man(a1-6)]Man(b1-4)GlcNAc(b1-4)GlcNAc
# In short: as §1
# [8] = target: Neu5Ac(a2-3)Gal(b1-4)GlcNAc(b1-2)[Neu5Ac(a2-3)Gal(b1-4)GlcNAc(b1-4)]Man(a1-3)[GlcNAc(b1-4)][Neu5Ac(a2-3)Gal(b1-4)GlcNAc(b1-4)Man(a1-6)]Man(b1-4)GlcNAc(b1-4)GlcNAc
# In short: as §1
# [9] = target: Neu5Ac(a2-3)Gal(b1-4)GlcNAc(b1-2)[Neu5Ac(a2-3)Gal(b1-4)GlcNAc(b1-6)]Man(a1-6)[Neu5Ac(a2-3)Gal(b1-4)GlcNAc(b1-2)Man(a1-3)]Man(b1-4)GlcNAc(b1-4)GlcNAc
# In short: as §1
# [10] = target: Neu5Ac(a2-3)Gal(b1-4)GlcNAc(b1-2)[Neu5Ac(a2-3)Gal(b1-4)GlcNAc(b1-6)]Man(a1-6)[Neu5Ac(a2-3)Gal(b1-4)GlcNAc(b1-2)Man(a1-3)][GlcNAc(b1-4)]Man(b1-4)GlcNAc(b1-4)GlcNAc
# In short: as §1
# [11] = target: Neu5Ac(a2-3)Gal(b1-4)GlcNAc(b1-3)Gal
# In short: as §1
# [12] = target: Neu5Ac(a2-3)Gal(b1-4)GlcNAc(b1-3)Gal(b1-3)GlcNAc
# In short: as §1
# [13] = target: Neu5Ac(a2-3)Gal(b1-4)GlcNAc(b1-3)Gal(b1-4)GlcNAc
# In short: as §1
# [14] = target: Neu5Ac(a2-3)Gal(b1-4)GlcNAc(b1-3)Gal(b1-4)GlcNAc(b1-2)Man(a1-3)[Neu5Ac(a2-3)Gal(b1-4)GlcNAc(b1-3)Gal(b1-4)GlcNAc(b1-2)Man(a1-6)]Man(b1-4)GlcNAc(b1-4)GlcNAc
# In short: as §1
# [15] = target: Neu5Ac(a2-3)Gal(b1-4)GlcNAc(b1-3)Gal(b1-4)GlcNAc(b1-3)Gal(b1-4)GlcNAc
# In short: as §1
# [16] = target: Neu5Ac(a2-3)Gal(b1-4)GlcNAc(b1-3)Gal(b1-4)GlcNAc(b1-3)Gal(b1-4)GlcNAc(b1-2)Man(a1-3)[Neu5Ac(a2-3)Gal(b1-4)GlcNAc(b1-3)Gal(b1-4)GlcNAc(b1-3)Gal(b1-4)GlcNAc(b1-2)Man(a1-6)]GalNAc
# In short: as §1
# [17] = target: Neu5Ac(a2-3)Gal(b1-4)GlcNAc(b1-3)Gal(b1-4)GlcNAc(b1-3)GalNAc
# In short: as §1
# [18] = target: Neu5Ac(a2-3)Gal(b1-4)GlcNAc(b1-3)Gal(b1-4)GlcNAc(b1-3)[Neu5Ac(a2-3)Gal(b1-4)GlcNAc(b1-3)Gal(b1-4)GlcNAc(b1-6)]GalNAc
# In short: as §1
# [19] = target: Neu5Ac(a2-3)Gal(b1-4)GlcNAc(b1-3)Gal(b1-4)GlcNAc(b1-6)[Gal(b1-3)]GalNAc
# In short: as §1
# [20] = target: Neu5Ac(a2-3)Gal(b1-4)GlcNAc(b1-3)Gal(b1-4)[Fuc(a1-3)]GlcNAc
# In short: as §1
# [21] = target: Neu5Ac(a2-3)Gal(b1-4)GlcNAc(b1-3)GalNAc
# In short: as §1
# [22] = target: Neu5Ac(a2-3)Gal(b1-4)GlcNAc(b1-3)[Neu5Ac(a2-3)Gal(b1-4)GlcNAc(b1-6)]GalNAc
# In short: as §1
# [23] = target: Neu5Ac(a2-3)Gal(b1-4)GlcNAc(b1-6)GalNAc
# In short: as §1
# [24] = target: Neu5Ac(a2-3)Gal(b1-4)GlcNAc(b1-6)[Gal(b1-3)]GalNAc
# In short: as §1
# [25] = target: Neu5Ac(a2-3)Gal(b1-4)GlcNAc(b1-6)[Neu5Ac(a2-3)Gal(b1-3)]GalNAc
# In short: as §1
# [26] = target: Neu5Ac(a2-3)Gal(b1-4)GlcNAc6S
# In short: as §1
# [27] = target: Neu5Ac(a2-3)Gal(b1-4)[Fuc(a1-3)]GlcNAc
# In short: as §1
# [28] = target: Neu5Ac(a2-3)Gal(b1-4)[Fuc(a1-3)]GlcNAc(b1-2)Man
# In short: as §1
# [29] = target: Neu5Ac(a2-3)Gal(b1-4)[Fuc(a1-3)]GlcNAc(b1-3)Gal
# In short: as §1
# [30] = target: Neu5Ac(a2-3)Gal(b1-4)[Fuc(a1-3)]GlcNAc(b1-3)Gal(b1-4)GlcNAc
# In short: as §1
# [31] = target: Neu5Ac(a2-3)Gal(b1-4)[Fuc(a1-3)]GlcNAc(b1-3)Gal(b1-4)[Fuc(a1-3)]GlcNAc(b1-3)Gal(b1-4)[Fuc(a1-3)]GlcNAc
# In short: as §1
# [32] = target: Neu5Ac(a2-3)Gal(b1-4)[Fuc(a1-3)]GlcNAc(b1-3)GalNAc
# In short: as §1
# [33] = target: Neu5Ac(a2-3)Gal(b1-4)[Fuc(a1-3)]GlcNAc(b1-6)[Gal(b1-3)]GalNAc
# In short: as §1
# [34] = target: Neu5Ac(a2-3)Gal(b1-4)[Fuc(a1-3)]GlcNAc(b1-6)[Neu5Ac(a2-3)Gal(b1-3)]GalNAc
# In short: as §1
# [35] = target: Neu5Ac(a2-3)Gal(b1-4)[Fuc(a1-3)]GlcNAc6S
# In short: as §1
# [36] = target: Neu5Ac(a2-3)Gal6S(b1-4)GlcNAc
# In short: as §1
# [37] = target: Neu5Ac(a2-3)Gal6S(b1-4)[Fuc(a1-3)]GlcNAc
# In short: as §1
binder,measurement,setting,value
B1,glycan array binding signal (z-score),Neu5Ac(a2-3)Gal(b1-4)Glc,-0.253
same,glycan array binding signal (z-score),[1],-0.229
same,glycan array binding signal (z-score),[2],-0.135
same,glycan array binding signal (z-score),[3],-0.18
same,glycan array binding signal (z-score),[4],-0.35
same,glycan array binding signal (z-score),[5],-0.197
same,glycan array binding signal (z-score),[6],-0.265
same,glycan array binding signal (z-score),[7],-0.315
same,glycan array binding signal (z-score),[8],-0.341
same,glycan array binding signal (z-score),[9],-0.312
same,glycan array binding signal (z-score),[10],-0.274
same,glycan array binding signal (z-score),[11],-0.244
same,glycan array binding signal (z-score),[12],-0.321
same,glycan array binding signal (z-score),[13],-0.349
same,glycan array binding signal (z-score),[14],-0.019
same,glycan array binding signal (z-score),[15],-0.311
same,glycan array binding signal (z-score),[16],0.212
same,glycan array binding signal (z-score),[17],-0.274
same,glycan array binding signal (z-score),[18],-0.155
same,glycan array binding signal (z-score),[19],0.23
same,glycan array binding signal (z-score),[20],-0.362
same,glycan array binding signal (z-score),[21],-0.277
same,glycan array binding signal (z-score),[22],-0.31
same,glycan array binding signal (z-score),[23],-0.34
same,glycan array binding signal (z-score),[24],0.891
same,glycan array binding signal (z-score),[25],-0.272
same,glycan array binding signal (z-score),[26],-0.32
same,glycan array binding signal (z-score),[27],-0.25
same,glycan array binding signal (z-score),[28],-0.207
same,glycan array binding signal (z-score),[29],-0.308
same,glycan array binding signal (z-score),[30],0.144
same,glycan array binding signal (z-score),[31],-0.258
same,glycan array binding signal (z-score),[32],1.1
same,glycan array binding signal (z-score),[33],0.813
same,glycan array binding signal (z-score),[34],0.492
same,glycan array binding signal (z-score),[35],-0.375
same,glycan array binding signal (z-score),[36],-0.311
same,glycan array binding signal (z-score),[37],-0.364
